Over roughly 5,400 compounds, “IFI” has its median near 2; the highest 2% begin near 22. Some of the results follow.

This assay can be described thus: NOVARTIS: Inhibition Frequency Index (IFI) - the number of HTS assays where a compound showed > 50% inhibition/induction, expressed as a percentage of the number of assays in which the compound was tested. Format: functional.
`COc1ccc(CCNC(=O)CC(=O)NN=Cc2ccc(Br)cc2)cc1OC` had an IFI of 0%. Regarding `CC(C)(C)c1cc(Br)cc(C=NNc2ccc([N+](=O)[O-])cc2)c1O`, the IFI stood at 0%. `Cc1ccc(NC(=O)c2cc(C(=O)c3cc(Cl)ccc3O)cn(-c3ccc(C)c(C)c3)c2=O)cc1C` registered an IFI of 6.25%. The figure for `Cc1ccn2c(NC(C)(C)CC(C)(C)C)c(-c3ccccc3OS(=O)(=O)CC34CCC(CC3=O)C4(C)C)nc2c1` (stereo not drawn) is 3.77%. The figure for `CCOC(=O)c1cc(-c2ccc(C)cc2)n(CCC(=O)Nc2cccc(C(F)(F)F)c2)c1C` is 2.7%; for `Clc1ccccc1-c1nc([P+](c2ccccc2)(c2ccccc2)c2ccccc2)c(N2CCOCC2)o1` it is 25.9%.

`CC[n+]1c(/C=C2\Sc3oc4ccccc4c3N2C)ccc2cc(C)ccc21` yielded an IFI of 26.1%. The figure for `COc1ccc(-c2c[n+](CC(=O)O[C@H]3C[C@H](C)CC[C@@H]3C(C)C)c3n2CCCCC3)cc1` is 21.9%. For `Cc1ccc(-c2nn(CC(=O)Nc3ccc(OC(F)(F)F)cc3)c(=O)c3ccccc23)cc1S(=O)(=O)N1CCCCC1` the value was 2.35%; for `CCOC(=O)c1c(CSc2ccccc2)oc2cc(CN(C)C)c(O)c(Cl)c12`, 4.62%; for `O=[N+]([O-])c1cccc(C(Nc2nccs2)c2ccc3cccnc3c2O)c1` (stereo not drawn), 7.69%. For `CC1=C(C(=O)OC2CCCCC2)C(c2ccc(F)cc2)C2=C(CC(c3ccccc3)CC2=O)N1` (stereo not drawn) the value was 5.88%; for `CC(=O)CSc1nnc(-c2ccncc2)n1C`, 1.51%; for `CCOc1ccc(/C=C(/C#N)c2nc3ccccc3[nH]2)cc1OC`, 8.42%. Consider `O=C(Nc1cc(Cl)cc(Cl)c1)Nc1ccccc1C(=O)NCC1CC1`, for which the IFI worked out at 3.39%. The figure for `Cc1ccc(-n2c(C(C)N(Cc3ccco3)C(=O)C3CCC3)nc3cc(Cl)ccc3c2=O)cc1` (stereo not drawn) is 3.09%; for `CCCCOc1ccc(C(=O)Nc2c3c(nn2-c2ccc(C)cc2C)CSC3)cc1` it is 0%.

Take `COc1ccc(Nc2cc(C)nc(NCc3ccccc3)n2)cc1`: the IFI amounted to 4%. The figure for `CN1CCN(N/C=C2/C(=O)N(c3nc4ccccc4s3)N=C2c2ccccc2)CC1` is 0%.

The compound `COc1ccc(C2CC(=O)C3=C(C2)NC(C)=C(C(=O)OC(C)C)C3c2ccccc2C)cc1OC` (stereo not drawn) yielded an IFI of 4.76%.

For `COc1ccc2c(c1OC)C(=O)N(c1ncc(C)s1)C2`, the IFI was 0%. For `CCC(C)(C)c1ccc(Oc2ccc(NC(=O)c3ccc([N+](=O)[O-])o3)cc2)cc1` the value was 15.2%. The figure for `CC(=O)N1CCOC1C(C)(C)C/C=C(\C)CCC=C(C)C` (stereo not drawn) is 1.47%; for `CN(C)c1ccc(/C=C2\SC(=Nc3ccc(F)cc3)NC2=O)cc1` it is 0%.

With `Oc1ncnc2c1C(c1ccccc1)c1c(O)ncnc1O2`, the IFI was found to be 0%. For `CC[n+]1c(C=C2C=CN(c3ccc(Cl)cc3)C=C2)ccc2ccccc21` the value was 15.4%; for `Cc1ccn2c(NC(C)(C)CC(C)(C)C)c(-c3ccccc3OC(=O)C3C[C@H]3c3ccccc3)nc2c1` (stereo partly drawn), 3.74%; for `N#Cc1ccc(NC(=O)NC2CC3CCCC(C2)N3CCc2ccccc2)cc1` (stereo not drawn), 3.8%. The figure for `COc1ccc(O)c(C=NNc2nc3ccccc3[nH]2)c1` is 8.33%; for `COCCNCCN1CCN(c2ccc(C)cc2)C[C@@H]1c1ccccc1` it is 1.24%; for `c1cc2cc3ccc(OCCN4CCCCC4)cc3nc2cc1OCCN1CCCCC1` it is 2.68%. The figure for `O=C(Nc1ccccc1O)c1ccc(C(=O)N(C2CCCCC2)C2CCCCC2)cc1` is 0%; for `O=C(Nc1ccc(NC(=O)c2ccco2)cc1Cl)c1ccccc1` it is 0%. Compound `OCCNc1nc(Nc2ccc(Br)cc2)nc2ccccc12` yielded an IFI of 0%. For `CCCCN(CCCC)S(=O)(=O)c1nc(C)c(Cl)c(C)c1C#N`, the IFI is 0%. For `Cc1cccc(N2C(=O)C3C(C2=O)C2(c4ccccc4)C(=O)C3(c3ccccc3)C(c3ccccc3)=C2c2ccccc2)c1` (stereo not drawn) the value was 0%; for `C=CCn1c2cc(C)sc2c2cnn(CC(=O)N3CC(C)CC(C)C3)c(=O)c21` (stereo not drawn), 0%. Regarding `CCCCOc1c2ccccc2nc2ccccc12`, the IFI turned out to be 0%. The figure for `CCOc1ccc(C2=NC3(CCN(C(C)C)CC3)NC(c3cc(Cl)ccc3O)C2)cc1` (stereo not drawn) is 3.12%; for `CCOc1ccc(Nc2cc(C)nc3c(C)cc(C)cc23)cc1` it is 1.11%. The figure for `CCN(CC)CCNc1ccnc2ccc([N+](=O)[O-])cc12` is 0%. As for `Cc1ccc(-c2cn3ccccc3[n+]2CC(=O)c2ccc(Cl)cc2)cc1[N+](=O)[O-]`, the IFI was 0%. The figure for `COc1ccc(OC)c(-c2ccc(O)c(CNC3CCCCCCC3)c2)c1` is 1.72%.

The compound `Oc1ccccc1Nc1nc(NCc2ccccc2)c2ccccc2n1` came in with an IFI of 2.7%. `Clc1cc(N2CCCCC2)c(Cl)nn1` came in with an IFI of 0%.

`NS(=O)(=O)c1ccc(N/C=C/C(=O)c2ccc(Cl)s2)cc1` came in with an IFI of 0%. As for `Cc1ccc2nc(-c3ccccc3)cc(C(=O)Nc3ccc(Cl)c(Cl)c3)c2c1`, the IFI came out at 1.5%.

The compound `CC1CCCCN1CCCN(Cc1c2ccccc2cc2ccccc12)C(=O)c1ccccc1Cl` (stereo not drawn) yielded an IFI of 2.08%. For `CN1CCN(c2nc(NCCNc3ccc([N+](=O)[O-])cc3)c3ccccc3n2)CC1` the value was 19.1%; for `Cc1nc(-c2ccncc2)nc(NCCNc2ccc(C(F)(F)F)cn2)c1Cl`, 0%. `CC1(C)CC(=O)C2=C(C1)NC(=O)CC2c1ccc(C(C)(C)C)cc1` (stereo not drawn): the IFI was determined as 9.09%. The figure for `CCN1CCN(c2cc(C)c(C#N)c3nc4ccccc4n23)CC1` is 0%; for `COc1ccc([C@]23Oc4cc(OC)cc(OC)c4[C@@]2(O)[C@@H](O)C(C(=O)N(C)C)[C@@H]3c2ccccc2)cc1` (stereo partly drawn) it is 0%; for `COc1ccc(/C=C2\SC(=Nc3ccc(F)cc3)NC2=O)c(OC)c1` it is 0%.

Take `C[n+]1ccc(C2OC2c2ccccc2)c2ccccc21` (stereo not drawn): the IFI amounted to 0%. With `Cc1cc2c(cc1C)N(C(=O)c1ccccc1)C(C)(C)c1ssc(=S)c1-2`, the IFI was 0%. For `CCOC(=O)CSc1nc2c(sc(=S)n2-c2ccc(Cl)c(C)c2)c(=O)n1-c1ccccc1OC` the value was 0%; for `O=C(Nc1ccc(Cl)cc1)N1CCN(c2ccc3nncn3n2)CC1`, 0%.

With `CCOc1ccc(CN(CCC(c2ccccc2)c2ccccc2)C(=O)Nc2ccccc2C)cc1`, the IFI was found to be 0.926%. `O=C(Nc1ccc(Cl)cc1Cl)c1ccc(-c2nc(-c3ccccc3Cl)cs2)cc1` had an IFI of 6.67%.

In the case of `COC(=O)C1=C(C)N(c2ccc(N(C)C)cc2)C(C)=C(C(=O)OC)C1c1ccc(Br)cc1`, the IFI came to 0%.

For the compound `COc1ccc2[nH]cc(CCNC(=O)Oc3ccccc3)c2c1`, the IFI was found to be 0%. In turn, `CCOC(=O)Cn1cnc2c(nnn2Cc2ccc(F)cc2)c1=O` came in with an IFI of 0%.

Source of the values: ChEMBL document CHEMBL1156829.
